Test results reported in PubChem BioAssay AID1346428 (National Center for Advancing Translational Sciences (NCATS), 2018).
Among all 48,000 compounds or so, about 1,200 (2.5%) were called active. Not shown: some 2% with an inconclusive outcome.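 How the source made its calls: active means activation of at least 60% and not above a set upper limit (about 1 call in 100 departs from these limits); inconclusive means activation of 40% to 60%, or above that upper limit; inactive means activation under 40%.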 The list shows a part of the results.

These compounds were tested against Probable G-protein coupled receptor 32 (Homo sapiens) (UniProt O75388) (assay: qHTS for Agonists of Human Resolvin D1 Receptor DRV1). Conditions: CHO-K1 GPR32 beta-arrestin PathHunter luminescence, 90 min; at 76.9 µM; hits give high values; zero percent set by DMSO-only wells.
Outline: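 Cells are plated overnight, treated with compounds in DMSO for 90 minutes at 37 °C, and developed with PathHunter detection reagent for 1 hour before luminescence is read; signal reflects beta-arrestin binding to GPR32 in engineered CHO-K1 cells.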
Further: 0% is about no effect.

UniProt O75388, sequence (O75388 whole entry, looked up): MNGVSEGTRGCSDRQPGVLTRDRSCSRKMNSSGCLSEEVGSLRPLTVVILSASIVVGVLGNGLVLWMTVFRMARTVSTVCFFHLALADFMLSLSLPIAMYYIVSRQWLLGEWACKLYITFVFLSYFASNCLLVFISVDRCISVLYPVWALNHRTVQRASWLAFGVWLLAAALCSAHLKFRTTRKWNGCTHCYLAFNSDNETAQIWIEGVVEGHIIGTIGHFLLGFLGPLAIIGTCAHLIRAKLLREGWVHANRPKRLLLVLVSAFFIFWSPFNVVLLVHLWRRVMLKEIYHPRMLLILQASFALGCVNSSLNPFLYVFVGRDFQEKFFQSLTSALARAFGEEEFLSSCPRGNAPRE

Row | SMILES | activation
1 | Cc1ccc(-c2nc(SCC(=O)N3CCc4ccccc43)c3c(=O)n(C)c(=O)n(C)c3n2)cc1 | inactive: 6.76%
2 | CCOC(=O)C1CCC(CN(Cc2c(Cl)cccc2Cl)S(=O)(=O)c2ccc(Cl)cc2)CC1 (configuration not stated) | inactive: -23.4%
3 | CCn1ccc2cc(S(=O)(=O)N3CCC(C(=O)NCc4ccc(OC)cc4)CC3)ccc21 | inactive: -6.7%
4 | Cc1ccc2nc(-c3ccc(Cl)c(NC(=O)c4cccc([N+](=O)[O-])c4C)c3)oc2c1 | inactive: -11.1%
5 | Cc1ccccc1CN1C(=O)c2ccccc2Sc2ccc(C(=O)OCc3ccco3)cc21 | inactive: -6.95%
6 | Cc1ccc(S(=O)(=O)n2nc(C)c(S(=O)(=O)N3CCC(C)CC3)c2C)cc1 | inactive: 11.8%
7 | O=C(NCc1ccccc1)c1ccc2c(c1)N(Cc1cccc(Cl)c1)C(=O)c1ccccc1S2(=O)=O | inactive: -24.3%
8 | COc1cc(/C=C/c2nc3cc(Cl)ccc3c(=O)n2-c2cccc(C(F)(F)F)c2)cc(OC)c1OC | inactive: -2.75%
9 | COc1cc2ncnc(Nc3ccc(F)c(Cl)c3)c2cc1OCCCN1CCOCC1 | active: 77.3%
10 | O=C(COCc1cc(-c2ccco2)on1)Nc1cccc(O)c1 | inactive: -7.96%
11 | COc1ccc(Cn2c(SCC(=O)Nc3ccc(OC)cc3)nc3ccccc32)cc1 | inactive: 15.7%
12 | COc1cc(OC)c(N(C)C(=O)C2CCCN(c3ncnc4c3nc3n4CCCCC3)C2)cc1Cl (configuration not stated) | inactive: -13.9%
13 | Cc1ccc(-c2nc3c(cnn3-c3ccccc3)c(=O)n2-c2cccc(Cl)c2)cc1 | inactive: -4.08%
14 | CN(C)S(=O)(=O)c1ccc2c(c1)N(CC(=O)N1CCN(c3cccc(Cl)c3)CC1)CCS2 | inactive: -18.3%
15 | Cn1c(=O)c(=O)n(C)c2cc(S(=O)(=O)CCC(=O)Nc3cccc(C(F)(F)F)c3)ccc21 | inactive: -14.8%
16 | CC1CCCN(Cc2c(O)ccc3c(=O)c(Oc4ccc(C(C)(C)C)cc4)c(C(F)(F)F)oc23)C1 (configuration not stated) | active: 64.7%
17 | COc1cc(NC(=O)Nc2nnc(N3CCCCCC3)s2)cc(OC)c1 | inactive: 4.6%
18 | Cc1ccc(Cc2cnc(NC(=O)C3Cc4ccc(C)cc4C(=O)O3)s2)cc1 (configuration not stated) | inactive: -4.17%
19 | COc1ccc(C(CNC(=O)c2cccc([N+](=O)[O-])c2)N2CCOCC2)cc1 (configuration not stated) | inactive: -13.4%
20 | COc1ccc(CCNc2nc(-c3ccc(F)cc3)cc(C(F)(F)F)n2)cc1OC | inactive: 14%
21 | COC(=O)c1cnn(-c2ccc(C(=O)Nc3ccc(OC(F)(F)F)cc3)cc2)c1N | inactive: -6.89%

Row | SMILES | activation
22 | CCc1ccc(NC(=O)CN2CCSc3ccc(S(=O)(=O)N4CCCC4)cc32)cc1 | inactive: -2.13%
23 | COc1ccc(/C=C/C(=O)c2ccc(OC)cc2OC)cc1 | inactive: -13.6%
24 | CC(NC(=O)c1c2c(nc3ccccc13)C(=O)N(C1CCCCC1)C2)c1ccccc1 (configuration not stated) | inactive: -21.9%
25 | CC(C(=O)O)c1ccc(C(=O)c2cccs2)cc1 (configuration not stated) | inactive: 2.93%
26 | CCOc1ccc(S(=O)(=O)c2cn(C)c3ccccc3c2=O)cc1 | inactive: 14.7%
27 | Cc1ccc(NC(=O)CN2C(=O)CCn3nc(-c4cccn4C)cc32)c(Cl)c1 | inactive: -6.03%
28 | CCN(C(=O)c1cccn(Cc2ccccc2C)c1=O)c1ccccc1 | inactive: -13.3%
29 | CN(C)c1ccc(NC(=O)CN2C(=O)c3ccccc3Sc3ccc(C(=O)N4CCCC4)cc32)cc1 | inactive: -24.8%
30 | CCOC(=O)C1CCN(C(=O)Cn2ncc3c4ccccc4n(Cc4ccccc4F)c3c2=O)CC1 | inactive: -8%
31 | Cc1cccc(N2CCN(CCCNC(=O)c3sc4ncccc4c3-n3cccc3)CC2C)c1 (configuration not stated) | inactive: -20.2%
32 | O=C(Cn1c(-c2cccs2)cc2cc(F)ccc21)NCCCN1CCN(c2ccccc2F)CC1 | inactive: 9.53%
33 | Cc1nn(CCCC(=O)NCc2cccc(Cl)c2)c(=O)c2c1sc1ccccc12 | inactive: -18.1%
34 | Cc1nnc(NC(=O)CSc2nnc3c(n2)[nH]c2ccccc23)s1 | inactive: -26.7%
35 | O=c1n(Cc2ccc(F)cc2)nc2n1-c1cc(Cl)ccc1OC2 | inactive: 18%
36 | Cc1ccc(F)cc1NC(=O)c1ccc(Cn2nc(N3CCN(c4ccccc4)CC3)ccc2=O)o1 | inactive: -18%
37 | Cc1nc2ccn(Cc3cccnc3)c(=O)c2cc1C(=O)NCc1ccc(Cl)cc1 | inactive: -7.99%
38 | COc1ccccc1CNC(=O)CCCn1nc(C)c2c(C)n(-c3ccc(C)cc3)nc2c1=O | inactive: -8.7%
39 | COc1cc(C(=O)Nc2ccc(Cl)c(-c3nc4ncccc4o3)c2)cc(OC)c1OC | inactive: 4.39%
40 | CCOc1cccc(CC(=O)N2CCc3c([nH]c4ccccc34)C2c2ccc(C)cc2)c1OCC (configuration not stated) | inactive: -34.4%
41 | Cc1ccc(C)c(-c2nn(CC(=O)Nc3cc(F)ccc3F)c(=O)c3c2CCCC3)c1 | inactive: -4.48%
42 | CC(CNC(=O)c1ccc(CSc2nc3ccncc3n2Cc2cccc(F)c2)cc1)c1ccccc1 (configuration not stated) | inactive: -7.67%

Row | SMILES | activation
43 | COc1ccc(C(=O)Nc2ccc3c(c2)N(C2CCCC2)C(=O)c2ccccc2S3)cc1OC | inactive: -7.05%
44 | Cc1ccc2onc(CC(=O)Nc3cc(F)ccc3F)c2c1 | inactive: -11.2%
45 | Cc1ccc(-c2cc(C(F)(F)F)n3nc(C(=O)Nc4sc5c(c4C#N)CCC(C)C5)cc3n2)cc1 (configuration not stated) | inactive: 7.14%
46 | O=C(CSc1nnc2scc(-c3ccc(Cl)cc3)n12)Nc1ccccc1F | inactive: -11.6%
47 | COC(=O)c1c(SC)nc2ccccc2c1OCc1ccc(C)cc1C | inactive: -12.9%
48 | CC(=O)c1ccc(N2CCN(S(=O)(=O)c3cc(-c4onc(C)c4C)ccc3C)CC2)cc1 | inactive: -1.56%
49 | Cc1cccc2c1-c1sc(C(=O)N3CCN(c4ccc(F)cc4)CC3)cc1CO2 | inactive: -3.6%
50 | Cc1ccccc1CNC(=O)CCCn1c(=O)c2cccn2c2ccccc21 | inactive: -21.4%
51 | O=C(Cn1cc(S(=O)(=O)N2CCN(c3ccccc3F)CC2)c2ccccc2c1=O)Nc1cccc(C(F)(F)F)c1 | inactive: 13.4%
52 | O=C(NCCc1ccccc1)C(=O)NCC(c1cccnc1)N1CCN(c2ccccc2)CC1 (configuration not stated) | inactive: -0.433%
53 | COCCNC(=O)CN1C(=O)COc2ccc(S(=O)(=O)N3CCOCC3)cc21 | inactive: 1.58%
54 | C=Cc1ccc(CSc2nc(-c3ccccc3C)nc3c2Cc2c(CO)cnc(C)c2O3)cc1 | inactive: 9.82%
55 | CCC1CCCCN1S(=O)(=O)c1ccc2c(c1)CCCN2C(C)=O (configuration not stated) | inactive: -20%
56 | CCn1cc(C(=O)OCC(=O)Nc2cccc(Cl)c2C)c(=O)c2ccc(C)nc21 | inactive: -3.31%
57 | CCc1ccccc1N(C)C(=O)Nc1cn(CC(C)C)c(=O)c2ccccc12 | inactive: -3.85%
58 | CCOc1ccc(CNC(=O)CCn2c(=O)c3cccn3c3cccnc32)cc1 | inactive: -2.73%
59 | CCOc1ccc(N2CC(NC(=O)c3ccc(S(=O)(=O)N4CCOCC4)cc3)CC2=O)cc1 (configuration not stated) | inactive: 7.9%
60 | COC(=O)C(N)Cc1ccc(Cl)cc1 (configuration not stated) | inactive: 0.304%
61 | N#Cc1ccc(NC(=O)COCc2cc(-c3ccc4c(c3)OCO4)on2)cc1 | inactive: 15.8%
62 | Cc1cc(N2CCN(C)CC2)nc2ccc(NC(=O)Nc3ccc(Cl)cc3)cc12 | active: 118%
63 | COC(=O)c1scc(-c2ccc(C)cc2)c1S(=O)(=O)Nc1ccc(OC(F)(F)F)cc1 | inactive: -10.1%

Row | SMILES | activation
64 | O=C(CSc1nc(=O)n(Cc2ccco2)c2c1CCC2)NCc1ccccc1Cl | inactive: -24.8%
65 | Cc1cc(C)cc(NC(=O)CN2C(=O)CSc3ccc(S(=O)(=O)N4CCCC4)cc32)c1 | inactive: -25.6%
66 | CCOc1ccc(NC(=O)Cn2c(=O)n(Cc3ccccc3)c(=O)c3sc4ccccc4c32)cc1 | inactive: -3.94%
67 | Cc1nn(CC(=O)N2CCN(c3ccccc3)CC2)c(=O)c2cc3cc(F)ccc3n12 | inactive: 18.7%
68 | CC1=C(c2ccc(C(C)C)cc2)S(=O)(=O)N=C1N1CCC(C(=O)NCc2ccco2)CC1 | inactive: 26.5%
69 | CCOC(=O)c1c(NC(=O)CSc2cn(CCNC(=O)c3ccccc3OC)c3ccccc23)sc2c1CCCC2 | inactive: -2.29%
70 | O=C(NCC1CCN(Cc2cccc(F)c2)CC1)c1cc2ccc3cccnc3c2[nH]1 | inactive: 37.4%
71 | CCOc1ccc(NC(=O)c2c(NC(=O)c3cccc(C)c3)sc3c2CCC3)cc1 | inactive: 2.82%
72 | Cc1ccc(CNC(=O)Cn2c(=O)cc(-c3ccccc3)c3c(C)nn(C)c32)cc1 | inactive: -8.07%
73 | COc1ccccc1N1CCN(S(=O)(=O)CCNC(=O)COc2ccc(F)cc2)CC1 | inactive: -3.86%
74 | COc1ccc(CCNc2ncnc3c2c(-c2ccccc2)cn3-c2cccc(Cl)c2)cc1OC | inactive: -38.5%
75 | CCc1ccc(NC(=O)CC2C(=O)N(c3ccc(OC)cc3)C(=O)N2Cc2ccc(OC)cc2)cc1 (configuration not stated) | inactive: -27%
76 | Cc1c(C(=O)NCCc2ccccc2)cccc1-n1cnc2cccnc21 | inactive: -8.9%
77 | CCn1c(=O)c2sccc2n2c(CCCC(=O)N3CCN(c4cc(C)ccc4C)CC3)nnc12 | inactive: -2.3%
78 | Cc1cc(=O)n(Cc2ccc(F)cc2Cl)c2c1c(C)nn2-c1ccccc1 | inactive: -10.8%
79 | COc1ccccc1CNC(=O)C1CCN(S(=O)(=O)c2c(C)noc2/C=C/c2cccs2)CC1 | inactive: -38.2%
80 | Cc1ccn2c(=O)c(C(=O)NCCc3ccc(S(N)(=O)=O)cc3)c(O)nc2c1 | inactive: 1.17%
81 | CS(=O)(=O)NCCc1csc2nc(-c3ccccc3)nn12 | inactive: -15%
82 | COc1ccc(S(=O)(=O)NC2(C(F)(F)F)NC(=O)N(CCc3ccc(OC)c(OC)c3)C2=O)cc1 (configuration not stated) | inactive: 23%
